Here are results for 45 compounds from article PMC4336329 (PLoS ONE, 2015).

The structures appear in SMILES notation. The whole screen tested about 310,000 compounds, of which about 14,000 (4.5%) showed an effect of 50% or more. Effects have a minus sign here. Some of the results follow.
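Note: peak tail current of the secondary pulse compared with the same well before compound.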

Sequence of human ether-à-go-go-related gene (hERG) potassium channel (Q12809 whole entry, looked up): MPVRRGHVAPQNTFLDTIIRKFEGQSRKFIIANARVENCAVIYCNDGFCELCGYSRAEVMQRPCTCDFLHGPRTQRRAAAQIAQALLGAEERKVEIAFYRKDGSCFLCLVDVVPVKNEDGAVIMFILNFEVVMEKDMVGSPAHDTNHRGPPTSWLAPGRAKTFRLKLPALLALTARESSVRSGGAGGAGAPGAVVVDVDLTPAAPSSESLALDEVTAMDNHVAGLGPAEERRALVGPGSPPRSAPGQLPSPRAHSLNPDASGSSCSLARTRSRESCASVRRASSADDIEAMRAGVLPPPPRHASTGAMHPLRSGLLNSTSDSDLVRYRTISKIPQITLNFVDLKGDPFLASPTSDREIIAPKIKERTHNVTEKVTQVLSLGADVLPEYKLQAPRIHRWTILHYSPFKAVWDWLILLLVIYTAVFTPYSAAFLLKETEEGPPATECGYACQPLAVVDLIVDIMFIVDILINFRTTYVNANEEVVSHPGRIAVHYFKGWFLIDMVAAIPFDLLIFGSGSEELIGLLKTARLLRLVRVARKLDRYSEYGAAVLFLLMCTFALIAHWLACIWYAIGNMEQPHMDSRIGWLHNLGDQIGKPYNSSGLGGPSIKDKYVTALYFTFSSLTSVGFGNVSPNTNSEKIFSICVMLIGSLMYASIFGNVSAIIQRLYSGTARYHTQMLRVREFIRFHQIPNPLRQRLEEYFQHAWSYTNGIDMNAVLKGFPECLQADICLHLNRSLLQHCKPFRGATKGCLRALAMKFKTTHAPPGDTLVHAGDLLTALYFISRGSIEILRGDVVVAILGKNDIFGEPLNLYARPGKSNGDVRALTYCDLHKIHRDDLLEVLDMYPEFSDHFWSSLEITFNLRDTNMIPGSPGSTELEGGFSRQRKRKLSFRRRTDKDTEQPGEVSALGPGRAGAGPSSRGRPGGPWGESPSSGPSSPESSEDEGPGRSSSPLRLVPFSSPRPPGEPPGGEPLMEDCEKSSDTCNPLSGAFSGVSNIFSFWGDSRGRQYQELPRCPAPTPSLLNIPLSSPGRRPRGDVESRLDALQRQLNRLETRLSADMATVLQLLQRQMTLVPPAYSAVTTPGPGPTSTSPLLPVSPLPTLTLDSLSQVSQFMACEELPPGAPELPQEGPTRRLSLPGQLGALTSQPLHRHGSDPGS

This test has as its target human ether-à-go-go-related gene (hERG) potassium channel (human, UniProt Q12809). Description: primary screen, population patch clamp on CHO cells stably expressing hERG.
Consider `COc1ccc(N(CC(=O)Nc2ccccc2OC)S(=O)(=O)c2ccccc2)cc1Cl`, for which the “hERG current change (%, negative = inhibition) at 10uM” value was 7.49%. The same measure for `Cc1c(C)n(Cc2ccccc2)c2ccc(C(=O)NCCN3CCOCC3)cc12`: -3.43%; for `O=C(NC(CC(=O)N1CCN(c2ccccc2O)CC1)c1ccccc1)c1ccccc1Cl` (stereo not drawn): -70.6%; for `Cc1ccc2c(CC(=O)N3CCOCC3)coc2c1`: 8.58%. With `Cc1cccc(CCN=c2c([N+](=O)[O-])nn(-c3ccccc3)n2O)c1` the figure was -15.5%. The same measure for `O=C1SCCC1NC(=O)C(c1ccccc1)c1ccccc1` (stereo not drawn): 3.15%; for `Cc1ccccc1NS(=O)(=O)c1c(C(=O)N2CCCCCC2)c(C)n(C)c1C`: -20.7%. With `COc1cccc(NC(=O)CN(C)C(=O)CNC(=O)c2ccc3ccccc3c2)c1`, the “hERG current change (%, negative = inhibition) at 10uM” value is -10.2%. The same measure for `CCOC(=O)N1CCN(Cc2nc(-c3ccccc3)no2)CC1`: 2%; for `O=C(c1cn(Cc2ccccc2)nc1-c1ccc(Cl)cc1)N1CCN(c2ccccn2)CC1`: -26.4%. With `O=S(=O)(Nc1ccc(-n2cnnn2)cc1)c1cccs1` the figure was 6.07%; with `CC(COS(N)(=O)=O)Cc1ccc(C(F)(F)F)cc1` (stereo not drawn), -1.35%. As for `Cc1c(C(=O)NC(C)C)oc2c1-c1[nH]ncc1CC2`, the “hERG current change (%, negative = inhibition) at 10uM” value was determined as 8.11%.

On to `CC(C)N1CCN(Cc2nc3ccccc3s2)CC1CCO` (stereo not drawn), for which the “hERG current change (%, negative = inhibition) at 10uM” value was -37.6%. For `COc1ccccc1/C=C1\C(=O)NC(=S)N(c2ccccc2)C1=O`, the “hERG current change (%, negative = inhibition) at 10uM” value was determined as 22.4%.

For the compound `Cc1ccccc1NC(=O)CSc1nnc2ccc(-c3ccncc3)nn12`, the “hERG current change (%, negative = inhibition) at 10uM” value is listed as -69.5%. With `O=C(Nc1cccc(NC(=O)C2CCCO2)c1)C1CCCO1` (stereo not drawn) the figure was 5.42%. With `CCn1c(CSCc2ccc(C)cc2)n[nH]c1=S`, the “hERG current change (%, negative = inhibition) at 10uM” value is reported as 23%. The same measure for `Cc1onc(-c2c(F)cccc2Cl)c1C(=O)Nc1cccc(S(=O)(=O)NC2=NCCC2)c1`: -6.81%; for `CC1C/C(=N/N=C2/NC(=O)CS2)CC(C)(C)C1` (stereo not drawn): -6.47%. With `O=C(Nc1ccc(Br)cc1C(=O)O)c1ccc2c(c1)C(=O)N(Cc1ccccc1)C2=O` the figure was 7.86%; with `COc1cc(CNCCNC(=O)c2cccs2)cc(OC)c1OC`, 2.62%. With `Cc1cc([N+](=O)[O-])nn1CC(=O)NCCCN1CCOCC1` the figure was -1.72%; with `CCCCN(CC)S(=O)(=O)c1c(C)[nH]c(=O)[nH]c1=O`, 19%.

Take `Cc1ccc(-c2n[nH]c(=S)n2/N=C/c2ccc(C(=O)O)cc2)cc1`: the “hERG current change (%, negative = inhibition) at 10uM” value came out at 3.02%. The same measure for `NC(=O)Cn1nc([N+](=O)[O-])nc1Oc1ccccc1F`: 17%; for `Cc1ccc(S(=O)(=O)N2CCOCCOCCOCCOCCOCC2)cc1`: -5.65%; for `COc1ccc2nc(SCC(C)=O)c(C#N)cc2c1`: 14.7%. As for `CC(C)OCCCn1c(NN)nc2ccccc2c1=O`, the “hERG current change (%, negative = inhibition) at 10uM” value is 8.08%. With `CCOC(=O)N1CCN(C(=O)c2cc3cc(F)ccc3[nH]2)CC1` the figure was -19.8%; with `CCOC(=O)c1ccc2[nH]c(C)cc(=O)c2c1`, 5.02%. With `O=C(Nc1cccnc1)c1ccc(Cl)c(S(=O)(=O)N2CCCC2)c1` the figure was 11.2%; with `Cc1[nH]c(=O)[nH]c(=O)c1S(=O)(=O)N1CCCC(C(=O)NCc2ccco2)C1` (stereo not drawn), -13.8%.

As for `C=CCn1c(C)cc(C(=O)COC(=O)/C=C/c2c(C)nn(C3CCS(=O)(=O)C3)c2Cl)c1C` (stereo not drawn), the “hERG current change (%, negative = inhibition) at 10uM” value was 4.62%. On to `CCCCN(C)/C=N/c1c(C#N)cnn1-c1ccc(C)cc1`, for which the “hERG current change (%, negative = inhibition) at 10uM” value is on record as -27.9%. Take `Cc1ccc(S(=O)(=O)NCCNC(=O)C2CCCNC2=O)cc1` (stereo not drawn): the “hERG current change (%, negative = inhibition) at 10uM” value amounted to 5.93%. Turning to `CCOc1ccc(CCNC(=O)Cn2ncn3nc(-c4ccc(OC)cc4)cc3c2=O)cc1`, the “hERG current change (%, negative = inhibition) at 10uM” value is given as -9.95%. Regarding `CC(C)(C)c1ccc(OCC(O)CSc2ncn[nH]2)cc1` (stereo not drawn), the “hERG current change (%, negative = inhibition) at 10uM” value amounted to 3.45%. With `OCCCNc1nnc(-c2ccccc2)c2ccccc12`, the “hERG current change (%, negative = inhibition) at 10uM” value amounted to 2.95%.

For the compound `CC(C)(C)OC(=O)N1CCC(C(=O)NCC2CCCO2)CC1` (stereo not drawn), the “hERG current change (%, negative = inhibition) at 10uM” value is listed as 16.5%. Regarding `CCS(=O)(=O)N1CCC(c2nc(-c3ccc(C)cc3)no2)CC1`, the “hERG current change (%, negative = inhibition) at 10uM” value is on record as -11.2%. With `C=CCNC(=O)C(=O)NCC1CCCN1S(=O)(=O)c1cccs1` (stereo not drawn) the figure was -1.92%.

For `CNc1csc(C)c(C)c1=O`, the “hERG current change (%, negative = inhibition) at 10uM” value is on record as 21.7%. The same measure for `O=C1CN(C(=O)c2ccc(Br)o2)C(c2ccccc2)c2cc(Br)ccc2N1` (stereo not drawn): -23.6%; for `CCc1ccc(-n2c(Cc3ccccc3)n[nH]c2=S)cc1`: 27.3%.
